{
  "source": "the supplement of paper PMC8728848",
  "experiment_in_all_cases": "glycan array binding signal (z-score within array); higher = stronger binding",
  "settings_in_all_cases": "glycan notation: IUPAC condensed, linker removed; mutation: E227A",
  "key": {"Gal(a1-3)Gal(b1-4)GlcNAc": {"target": "Gal(a1-3)Gal(b1-4)GlcNAc", "summary_of_the_method": "(§1)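 The Consortium for Functional Glycomics database supplied 3228 glycan arrays, of which those lacking an available protein sequence were dropped. The binding signal, a within-array Z-score, was averaged across arrays of the same protein sequence and across linkers. Negative scores can be read as non-binding.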"}, "[1]": {"target": "Gal(a1-3)Gal(b1-4)GlcNAc(b1-2)Man", "summary_of_the_method": "as §1"}, "[2]": {"target": "Gal(a1-3)Gal(b1-4)GlcNAc(b1-2)Man(a1-3)[Gal(a1-3)Gal(b1-4)GlcNAc(b1-2)Man(a1-6)]Man(b1-4)GlcNAc(b1-4)GlcNAc", "summary_of_the_method": "as §1"}, "[3]": {"target": "Gal(a1-3)Gal(b1-4)GlcNAc(b1-3)GalNAc", "summary_of_the_method": "as §1"}, "[4]": {"target": "Gal(a1-3)Gal(b1-4)GlcNAc(b1-6)GalNAc", "summary_of_the_method": "as §1"}, "[5]": {"target": "Gal(a1-3)Gal(b1-4)[Fuc(a1-3)]GlcNAc", "summary_of_the_method": "as §1"}, "[6]": {"target": "Gal(a1-3)Gal(b1-4)[Fuc(a1-3)]GlcNAc(b1-2)Man(a1-3)[Gal(a1-3)Gal(b1-4)[Fuc(a1-3)]GlcNAc(b1-2)Man(a1-6)]Man(b1-4)GlcNAc(b1-4)GlcNAc", "summary_of_the_method": "as §1"}, "Gal(a1-3)GalNAc": {"target": "Gal(a1-3)GalNAc", "summary_of_the_method": "as §1"}, "[7]": {"target": "Gal(a1-3)[Gal(a1-4)]Gal(b1-4)GlcNAc", "summary_of_the_method": "as §1"}, "[8]": {"target": "Gal(a1-4)Gal(b1-3)GlcNAc(b1-2)Man(a1-3)[Gal(a1-4)Gal(b1-3)GlcNAc(b1-2)Man(a1-6)]Man(b1-4)GlcNAc(b1-4)GlcNAc", "summary_of_the_method": "as §1"}, "Gal(a1-4)Gal(b1-4)Glc": {"target": "Gal(a1-4)Gal(b1-4)Glc", "summary_of_the_method": "as §1"}, "Gal(a1-4)Gal(b1-4)GlcNAc": {"target": "Gal(a1-4)Gal(b1-4)GlcNAc", "summary_of_the_method": "as §1"}, "[9]": {"target": "Gal(a1-4)Gal(b1-4)GlcNAc(b1-2)Man(a1-3)[Gal(a1-4)Gal(b1-4)GlcNAc(b1-2)Man(a1-6)]Man(b1-4)GlcNAc(b1-4)GlcNAc", "summary_of_the_method": "as §1"}, "[10]": {"target": "Gal(a1-4)Gal(b1-4)GlcNAc(b1-3)Gal(b1-4)Glc", "summary_of_the_method": "as §1"}, "Gal(a1-4)GlcNAc": {"target": "Gal(a1-4)GlcNAc", "summary_of_the_method": "as §1"}, "Gal(a1-6)Glc": {"target": "Gal(a1-6)Glc", "summary_of_the_method": "as §1"}, "Gal(b1-2)Gal": {"target": "Gal(b1-2)Gal", "summary_of_the_method": "as §1"}, "Gal(b1-3)Gal": {"target": "Gal(b1-3)Gal", "summary_of_the_method": "as §1"}, "Gal(b1-3)Gal(b1-4)GlcNAc": {"target": "Gal(b1-3)Gal(b1-4)GlcNAc", "summary_of_the_method": "as §1"}, "Gal(b1-3)GalNAc": {"target": "Gal(b1-3)GalNAc", "summary_of_the_method": "as §1"}, "[11]": {"target": "Gal(b1-3)GalNAc(a1-3)[Fuc(a1-2)]Gal(b1-4)Glc", "summary_of_the_method": "as §1"}, "[12]": {"target": "Gal(b1-3)GalNAc(a1-3)[Fuc(a1-2)]Gal(b1-4)GlcNAc", "summary_of_the_method": "as §1"}, "Gal(b1-3)GalNAc(b1-3)Gal": {"target": "Gal(b1-3)GalNAc(b1-3)Gal", "summary_of_the_method": "as §1"}, "[13]": {"target": "Gal(b1-3)GalNAc(b1-3)Gal(a1-4)Gal(b1-4)Glc", "summary_of_the_method": "as §1"}, "[14]": {"target": "Gal(b1-3)GalNAc(b1-4)Gal(b1-4)Glc", "summary_of_the_method": "as §1"}, "[15]": {"target": "Gal(b1-3)GalNAc(b1-4)[Neu5Ac(a2-3)]Gal(b1-4)Glc", "summary_of_the_method": "as §1"}, "Gal(b1-3)GlcNAc": {"target": "Gal(b1-3)GlcNAc", "summary_of_the_method": "as §1"}, "[16]": {"target": "Gal(b1-3)GlcNAc(a1-3)Gal(b1-4)GlcNAc", "summary_of_the_method": "as §1"}, "[17]": {"target": "Gal(b1-3)GlcNAc(a1-6)Gal(b1-4)GlcNAc", "summary_of_the_method": "as §1"}, "Gal(b1-3)GlcNAc(b1-2)Man": {"target": "Gal(b1-3)GlcNAc(b1-2)Man", "summary_of_the_method": "as §1"}},
  "note": "Some of the results follow.",
  "data": [
    {"binder": "Epa1-NP-mutant-E227A (Candida glabrata), Q6VBJ0 (protein) MILNPALFLNKCVCIYTTLILLLLTNGGYATSSNDISLASKDPTTFPLGCSPDITTPKKGLSMELYSYDFRKKGSYPCWDAAYLDPNYPRTGYKSHRLLAKVDGVTGNINFYYHATKGCTPQLGHLPASYNYPKPLTMTNFTMLLYGYFRPKVTGFHTFTISADDLLFVNFGAGNAFDCCRRDSSADHFGNYQAYAIWGSKTAKDELTVHLDAGVYYPIRLFYNNRAYDGALSFTFKTESNENTVSDFSEYFFSLDDTEEGCPGLISYDSSCASVKTSKIIGIDYHTETPNENLVPITKTIYHLGIPCTGTTTTPLCGSGFYDPLANKCVTINTSSTSSVTKTTSHTTSKEVSFHSSISSQKTLIPKSIPSPYGPIKSQSIPTEMETSSEISSSEYAFSDVISTPSHSPYTKKHSSLNSSSYTSTVIHSLTSYSISQGIFSTSLSEQNITSKSSTDKFSTATSMSNNITQSSIIISQFSTNNENYTTTSMHTSSDKISTETLNNSISTTTSILFSNSSTILKNNTTIISSDKDTHYHPVNPTIVCSTNKTEIICASITQPSISNSNNHWSSSVLKFNSTTVRSTLPSSAGSNETSINVPFSSSTESNTSTSSTSTSNSKMVRSTLPSSAGSNETSISVPFSSSTESNTSTSSTSTSNSKMVRSTLPSSAGSNETSINVPFSSSTESNTSTSSTSTSNSKTVRSTPFSSAGIIMTSLSQRNNKSASSYASSNSKCYNTADSCRKVHSTPSYLLTSSYTSEGVDYDCSLVSTKLKINDTNCVNNKHTTKSCLKTSVTTTIPTLEIKTARKSSSNTIGLHSYPTSSPNKSISSAPIIGYISSFKTIKTASPSYQTSDLTTITTITSLNNPGSTAVENTHESNDKSRKTSSNDISSKHSVIKETKDAVESSNKSHQTNTLKCSSIIIASSSHNSYESLGGTTLTLTLSKVYSPQNNDTLPFLEISEVNPSRTVLPESSKMMQYLTSTEERNKTARNTIATNIVSISTFHFEGEGNAIRMGYTQLLLMLIGIIVMNIGT", "values": [
      {"measurement": "glycan array binding signal (z-score)", "setting": "Gal(a1-3)Gal(b1-4)GlcNAc", "result": -0.211},
      {"measurement": "glycan array binding signal (z-score)", "setting": "[1]", "result": -0.219},
      {"measurement": "glycan array binding signal (z-score)", "setting": "[2]", "result": -0.188},
      {"measurement": "glycan array binding signal (z-score)", "setting": "[3]", "result": -0.211},
      {"measurement": "glycan array binding signal (z-score)", "setting": "[4]", "result": -0.203},
      {"measurement": "glycan array binding signal (z-score)", "setting": "[5]", "result": -0.144},
      {"measurement": "glycan array binding signal (z-score)", "setting": "[6]", "result": -0.164},
      {"measurement": "glycan array binding signal (z-score)", "setting": "Gal(a1-3)GalNAc", "result": -0.191},
      {"measurement": "glycan array binding signal (z-score)", "setting": "[7]", "result": -0.187},
      {"measurement": "glycan array binding signal (z-score)", "setting": "[8]", "result": -0.192},
      {"measurement": "glycan array binding signal (z-score)", "setting": "Gal(a1-4)Gal(b1-4)Glc", "result": -0.214},
      {"measurement": "glycan array binding signal (z-score)", "setting": "Gal(a1-4)Gal(b1-4)GlcNAc", "result": -0.17},
      {"measurement": "glycan array binding signal (z-score)", "setting": "[9]", "result": -0.176},
      {"measurement": "glycan array binding signal (z-score)", "setting": "[10]", "result": -0.205},
      {"measurement": "glycan array binding signal (z-score)", "setting": "Gal(a1-4)GlcNAc", "result": -0.091},
      {"measurement": "glycan array binding signal (z-score)", "setting": "Gal(a1-6)Glc", "result": -0.062},
      {"measurement": "glycan array binding signal (z-score)", "setting": "Gal(b1-2)Gal", "result": -0.041},
      {"measurement": "glycan array binding signal (z-score)", "setting": "Gal(b1-3)Gal", "result": 0.926},
      {"measurement": "glycan array binding signal (z-score)", "setting": "Gal(b1-3)Gal(b1-4)GlcNAc", "result": 2.03},
      {"measurement": "glycan array binding signal (z-score)", "setting": "Gal(b1-3)GalNAc", "result": 1.28},
      {"measurement": "glycan array binding signal (z-score)", "setting": "[11]", "result": 0.456},
      {"measurement": "glycan array binding signal (z-score)", "setting": "[12]", "result": 1.05},
      {"measurement": "glycan array binding signal (z-score)", "setting": "Gal(b1-3)GalNAc(b1-3)Gal", "result": 0.925},
      {"measurement": "glycan array binding signal (z-score)", "setting": "[13]", "result": 0.447},
      {"measurement": "glycan array binding signal (z-score)", "setting": "[14]", "result": 3.42},
      {"measurement": "glycan array binding signal (z-score)", "setting": "[15]", "result": 1.23},
      {"measurement": "glycan array binding signal (z-score)", "setting": "Gal(b1-3)GlcNAc", "result": 0.369},
      {"measurement": "glycan array binding signal (z-score)", "setting": "[16]", "result": -0.187},
      {"measurement": "glycan array binding signal (z-score)", "setting": "[17]", "result": -0.057},
      {"measurement": "glycan array binding signal (z-score)", "setting": "Gal(b1-3)GlcNAc(b1-2)Man", "result": 0.122}
    ]}
  ]
}
